Data as given in patent US20210221869A1 (published 2021).

Tests used:
M22 [1] = test: M22 binding ability
M22 [2] = test: M22 binding ability; remark: listed apart in the source

B1: TR-MCD (Fc fusion)
chain: GMGCSSPPCECHQEEDFRVTCKDIQRIPSLPPSTQTLKLIETHLRTIPSHAFSNLPNISRIYVSIDVTLQQLESHSFYNLSKVTHIEIRNTRNLTYIDPDALKELPLLKFLGIFNTGLKMPDLTKVYSTDIFFILEITDNPYMTSIPVNAFQGLCNETLTLKLYNNGFTSVQGYAFNGTKLDAVYLNKNKYLTVIDKDAFGGVYSGPSLLDVSQTSVTALPSKGLEHLKELIARNTWTLKKLPLSLSFLHLTRADLSYPSHAEAAKAAEATKAAEAAAKAAKA[skipping human IgG4 Fc with S228P (EU numbers)]
IC50 (M22 [1]): 1.3 µg/mL

B2: TR-G8 (Fc fusion)
chain: GMGCSSPPCECHQEEDFRVTCKDIQRIPSLPPSTQTLKLIETHLRTIPSHAFSNLPNISRIYVSIDVTLQQLESHSFYNLSKVTHIEIRNTRNLTYIDPDALKELPLLKFLGIFNTGLKMPDLTKVYSTDIFFILEITDNPYMTSIPVNAFQGLCNETLTLKLYNNGFTSVQGYAFNGTKLDAVYLNKNKYLTVIDKDAFGGVYSGPSLLDVSQTSVTALPSKGLEHLKELIARNTWTLKKLPLSLSFLHLTRADLSYPSHGGGGGGGG[skipping human IgG4 Fc with S228P (EU numbers)]
IC50 (M22 [1]): 12 µg/mL

B3: TR4-Fc (Fc fusion)
chain: GMGCSSPPCECHQEEDFRVTCKDIQRIPSLPPSTQTLKLIETHLRTIPSHAFSNLPNISRIYVSIDVTLQQLESHSFYNLSKVTHIEIRNTRNLTYIDPDALKELPLLKFLGIFNTGLKMPDLTKVYSTDIFFILEITDNPYMTSIPVNAFQGLCNETLTLKLYNNGFTSVQGYAFNGTKLDAVYLNKNKYLTVIDKDAFGGVYSGPSLLDVSQTSVTALPSKGLEHLKELIARNTWTLKKLPLSLSFLHLTRADLSYPSH[skipping human IgG4 Fc with S228P (EU numbers)]
IC50 (M22 [1]): 5.6 µg/mL | IC50 (M22 [2]): 5.6 µg/mL

B4: TR-CD (Fc fusion)
chain: GMGCSSPPCECHQEEDFRVTCKDIQRIPSLPPSTQTLKLIETHLRTIPSHAFSNLPNISRIYVSIDVTLQQLESHSFYNLSKVTHIEIRNTRNLTYIDPDALKELPLLKFLGIFNTGLKMPDLTKVYSTDIFFILEITDNPYMTSIPVNAFQGLCNETLTLKLYNNGFTSVQGYAFNGTKLDAVYLNKNKYLTVIDKDAFGGVYSGPSLLDVSQTSVTALPSKGLEHLKELIARNTWTLKKLPLSLSFLHLTRADLSYPSHKARAAEAARAAEAAKAAEATKAAEAAAKAAKA[skipping human IgG4 Fc with S228P (EU numbers)]
IC50 (M22 [1]): 0.6 µg/mL

B5: TR-L2 (Fc fusion)
chain: GMGCSSPPCECHQEEDFRVTCKDIQRIPSLPPSTQTLKLIETHLRTIPSHAFSNLPNISRIYVSIDVTLQQLESHSFYNLSKVTHIEIRNTRNLTYIDPDALKELPLLKFLGIFNTGLKMPDLTKVYSTDIFFILEITDNPYMTSIPVNAFQGLCNETLTLKLYNNGFTSVQGYAFNGTKLDAVYLNKNKYLTVIDKDAFGGVYSGPSLLDVSQTSVTALPSKGLEHLKELIARNTWTLKKLPLSLSFLHLTRADLSYPSHAEAAAKEAAAKEAAAKEAAAKA[skipping human IgG4 Fc with S228P (EU numbers)]
IC50 (M22 [1]): 1.3 µg/mL

Read-outs that look alike come from different tables or passages of the source.
